No constants are given. Whether binding was seen depends on the method and setting. Binding seen in cells or lysates may run through a third protein. Some entries that bind do so weakly or less than the wild type.
Assays:
[1] = target: myc-tagged penton base (human adenovirus 5 (Ad5)) (UniProt P12538); test: co-IP; myc-tagged penton base co-expressed with GFP, GFP-Kif5A, GFP-Kif5B or RFP-Kif5C in 293A cells for 24 h; anti-myc immunoprecipitation of lysates (RIPA buffer with 1% NP40); immunoblot
[2] = target: GFP-tagged full length Kif5B (UniProt P33176); test: co-IP; GFP-Kif5B, GFP-KLC1 or GFP-KLC2 co-expressed with penton base-myc in 293A cells for 24 h; anti-GFP immunoprecipitation of lysates; immunoblot
[3] = target: GFP-tagged full length KLC1 (UniProt Q07866); test: as above
[4] = target: GFP-tagged full length KLC2 (UniProt Q9H0B6); test: as above

Amino acid sequences for entries named in this document (tags omitted).
UniProt P12538: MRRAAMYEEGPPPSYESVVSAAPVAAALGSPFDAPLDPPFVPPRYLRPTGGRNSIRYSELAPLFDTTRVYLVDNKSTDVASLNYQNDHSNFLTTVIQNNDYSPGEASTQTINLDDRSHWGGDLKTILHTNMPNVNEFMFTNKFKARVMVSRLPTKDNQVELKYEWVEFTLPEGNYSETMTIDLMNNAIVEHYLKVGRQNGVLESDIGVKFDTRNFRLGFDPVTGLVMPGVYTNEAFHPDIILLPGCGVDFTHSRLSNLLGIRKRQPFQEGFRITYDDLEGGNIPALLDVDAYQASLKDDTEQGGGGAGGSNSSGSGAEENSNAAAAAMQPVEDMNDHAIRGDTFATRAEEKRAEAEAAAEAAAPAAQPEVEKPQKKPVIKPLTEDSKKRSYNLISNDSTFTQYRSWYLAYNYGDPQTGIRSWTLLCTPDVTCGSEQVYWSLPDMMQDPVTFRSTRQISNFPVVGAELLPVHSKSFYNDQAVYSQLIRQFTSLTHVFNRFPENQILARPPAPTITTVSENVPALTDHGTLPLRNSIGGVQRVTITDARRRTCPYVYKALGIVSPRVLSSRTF
UniProt P33176: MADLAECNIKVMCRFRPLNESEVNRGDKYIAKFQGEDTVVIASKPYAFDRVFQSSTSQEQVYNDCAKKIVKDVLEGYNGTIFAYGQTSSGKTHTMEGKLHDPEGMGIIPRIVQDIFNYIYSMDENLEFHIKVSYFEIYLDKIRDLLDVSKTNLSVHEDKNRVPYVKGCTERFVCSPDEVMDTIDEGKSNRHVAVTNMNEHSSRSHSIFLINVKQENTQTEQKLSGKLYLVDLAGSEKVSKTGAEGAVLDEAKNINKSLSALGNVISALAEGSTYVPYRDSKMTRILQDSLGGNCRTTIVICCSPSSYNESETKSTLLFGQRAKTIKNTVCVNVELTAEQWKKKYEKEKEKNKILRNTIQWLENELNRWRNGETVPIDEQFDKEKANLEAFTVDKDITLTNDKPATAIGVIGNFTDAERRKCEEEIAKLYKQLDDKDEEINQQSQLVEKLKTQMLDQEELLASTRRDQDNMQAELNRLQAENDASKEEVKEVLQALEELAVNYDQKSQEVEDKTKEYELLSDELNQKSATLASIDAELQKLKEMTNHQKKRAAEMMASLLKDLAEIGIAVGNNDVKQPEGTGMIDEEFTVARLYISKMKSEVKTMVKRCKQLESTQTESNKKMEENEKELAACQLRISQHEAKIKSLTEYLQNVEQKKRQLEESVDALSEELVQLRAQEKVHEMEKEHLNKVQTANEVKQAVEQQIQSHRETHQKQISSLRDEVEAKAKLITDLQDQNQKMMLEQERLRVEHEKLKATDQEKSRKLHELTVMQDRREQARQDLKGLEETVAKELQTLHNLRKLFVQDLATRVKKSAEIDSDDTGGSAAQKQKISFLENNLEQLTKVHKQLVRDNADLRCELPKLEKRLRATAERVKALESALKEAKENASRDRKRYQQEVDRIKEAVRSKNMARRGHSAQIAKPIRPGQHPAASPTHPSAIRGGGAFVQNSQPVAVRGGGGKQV
UniProt Q07866: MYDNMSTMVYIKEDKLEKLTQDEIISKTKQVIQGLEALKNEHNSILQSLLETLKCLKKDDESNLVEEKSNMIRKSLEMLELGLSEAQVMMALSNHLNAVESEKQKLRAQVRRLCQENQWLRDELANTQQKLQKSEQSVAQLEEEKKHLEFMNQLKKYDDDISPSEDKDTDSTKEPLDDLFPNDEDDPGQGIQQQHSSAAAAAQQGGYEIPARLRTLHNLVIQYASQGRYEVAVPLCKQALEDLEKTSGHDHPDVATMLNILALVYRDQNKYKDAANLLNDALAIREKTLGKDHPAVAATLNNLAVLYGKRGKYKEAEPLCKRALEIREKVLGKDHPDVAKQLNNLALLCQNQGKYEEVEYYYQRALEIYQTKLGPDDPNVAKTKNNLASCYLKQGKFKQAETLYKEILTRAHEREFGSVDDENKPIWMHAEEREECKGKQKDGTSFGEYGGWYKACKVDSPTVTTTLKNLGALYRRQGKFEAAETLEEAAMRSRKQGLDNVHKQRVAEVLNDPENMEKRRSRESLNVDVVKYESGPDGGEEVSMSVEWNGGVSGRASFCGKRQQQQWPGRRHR
UniProt Q9H0B6: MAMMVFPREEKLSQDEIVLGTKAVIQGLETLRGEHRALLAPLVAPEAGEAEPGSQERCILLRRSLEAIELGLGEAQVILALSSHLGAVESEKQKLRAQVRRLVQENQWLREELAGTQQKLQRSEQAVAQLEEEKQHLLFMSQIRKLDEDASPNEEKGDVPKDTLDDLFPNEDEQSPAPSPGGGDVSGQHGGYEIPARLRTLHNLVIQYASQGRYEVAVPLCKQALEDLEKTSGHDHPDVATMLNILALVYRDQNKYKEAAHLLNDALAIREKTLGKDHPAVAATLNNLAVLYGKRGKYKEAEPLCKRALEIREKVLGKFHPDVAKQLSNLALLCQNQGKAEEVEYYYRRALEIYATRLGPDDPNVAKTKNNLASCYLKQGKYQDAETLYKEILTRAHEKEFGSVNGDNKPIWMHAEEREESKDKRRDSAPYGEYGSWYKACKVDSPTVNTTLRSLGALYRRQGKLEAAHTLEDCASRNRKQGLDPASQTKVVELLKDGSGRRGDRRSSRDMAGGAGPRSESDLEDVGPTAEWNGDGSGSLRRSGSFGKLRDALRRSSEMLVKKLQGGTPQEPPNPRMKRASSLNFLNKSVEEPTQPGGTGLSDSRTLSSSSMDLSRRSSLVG
UniProt Q12840: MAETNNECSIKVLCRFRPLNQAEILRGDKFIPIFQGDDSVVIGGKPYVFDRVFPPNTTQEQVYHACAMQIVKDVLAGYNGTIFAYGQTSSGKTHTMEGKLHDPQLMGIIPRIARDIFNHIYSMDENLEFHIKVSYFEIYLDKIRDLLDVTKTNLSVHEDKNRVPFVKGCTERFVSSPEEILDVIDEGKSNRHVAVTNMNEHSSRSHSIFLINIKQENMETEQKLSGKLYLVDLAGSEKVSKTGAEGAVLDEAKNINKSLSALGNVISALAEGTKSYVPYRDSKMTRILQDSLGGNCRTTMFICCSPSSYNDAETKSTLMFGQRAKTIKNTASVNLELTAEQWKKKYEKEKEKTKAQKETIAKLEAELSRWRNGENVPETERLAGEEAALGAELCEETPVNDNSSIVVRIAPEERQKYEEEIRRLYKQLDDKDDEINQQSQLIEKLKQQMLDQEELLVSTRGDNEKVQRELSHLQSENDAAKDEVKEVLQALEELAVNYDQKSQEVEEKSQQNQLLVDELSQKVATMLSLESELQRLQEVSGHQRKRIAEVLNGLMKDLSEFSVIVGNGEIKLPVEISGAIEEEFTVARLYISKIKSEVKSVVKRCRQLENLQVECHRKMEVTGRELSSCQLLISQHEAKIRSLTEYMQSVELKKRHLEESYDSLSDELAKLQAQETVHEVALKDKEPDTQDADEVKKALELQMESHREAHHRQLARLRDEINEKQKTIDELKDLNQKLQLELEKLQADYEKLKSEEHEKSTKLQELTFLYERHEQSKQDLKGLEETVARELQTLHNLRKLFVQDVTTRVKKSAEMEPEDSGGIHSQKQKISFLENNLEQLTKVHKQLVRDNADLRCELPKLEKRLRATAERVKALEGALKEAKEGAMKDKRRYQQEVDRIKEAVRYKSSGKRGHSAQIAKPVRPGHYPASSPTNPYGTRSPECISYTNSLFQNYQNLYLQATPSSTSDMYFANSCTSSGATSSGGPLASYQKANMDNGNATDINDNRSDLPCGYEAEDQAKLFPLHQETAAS
UniProt O60282: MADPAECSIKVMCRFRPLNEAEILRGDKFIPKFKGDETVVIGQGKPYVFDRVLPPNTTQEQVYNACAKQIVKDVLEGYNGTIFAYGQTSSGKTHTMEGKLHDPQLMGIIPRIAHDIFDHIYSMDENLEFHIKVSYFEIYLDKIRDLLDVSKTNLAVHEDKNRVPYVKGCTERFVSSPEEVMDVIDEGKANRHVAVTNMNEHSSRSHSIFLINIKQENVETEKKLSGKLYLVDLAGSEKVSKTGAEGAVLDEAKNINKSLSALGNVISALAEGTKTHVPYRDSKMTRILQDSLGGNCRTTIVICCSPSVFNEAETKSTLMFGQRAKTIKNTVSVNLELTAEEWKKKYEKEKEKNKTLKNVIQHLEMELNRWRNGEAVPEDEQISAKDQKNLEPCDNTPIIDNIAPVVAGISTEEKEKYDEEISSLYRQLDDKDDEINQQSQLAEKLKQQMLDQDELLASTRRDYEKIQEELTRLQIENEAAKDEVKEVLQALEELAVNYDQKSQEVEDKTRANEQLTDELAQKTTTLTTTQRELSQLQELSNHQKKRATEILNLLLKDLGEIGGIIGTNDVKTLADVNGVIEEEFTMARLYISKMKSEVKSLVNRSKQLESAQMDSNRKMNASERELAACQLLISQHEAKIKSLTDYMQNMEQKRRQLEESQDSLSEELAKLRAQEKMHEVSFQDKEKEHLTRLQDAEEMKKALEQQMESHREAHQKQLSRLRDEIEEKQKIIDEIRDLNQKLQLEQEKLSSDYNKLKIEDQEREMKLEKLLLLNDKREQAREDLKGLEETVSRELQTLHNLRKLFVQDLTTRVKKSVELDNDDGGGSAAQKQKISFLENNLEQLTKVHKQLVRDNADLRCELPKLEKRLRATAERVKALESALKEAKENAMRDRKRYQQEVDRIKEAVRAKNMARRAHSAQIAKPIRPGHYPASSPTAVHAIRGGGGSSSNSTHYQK

Row | Substance | binding [1] | binding [2] | binding [3] | binding [4]
1 | GFP-tagged full length Kif5A (from UniProt Q12840 1-1032) | binds | – | – | –
2 | GFP-tagged full length Kif5B (from UniProt P33176 1-963) | binds | – | – | –
3 | RFP-tagged Kif5C (from UniProt O60282 1-957) | binds | – | – | –
4 | myc-tagged penton base (from UniProt P12538 1-571) | – | binds | no binding | no binding
